The supplement of paper PMC8728848
This is one part of the list.

What was measured:
Test in all cases: glycan array binding signal (z-score within array); higher = stronger binding
Conditions in all cases: glycan notation: IUPAC condensed, linker removed
[1] = molecular target: 3-Anhydro-Gal(a1-3)Gal(b1-4)3-Anhydro-Gal(a1-3)Gal4S
Procedure, shortened: (§1)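 The binding signal is a Z-score computed within each array and averaged over linkers. Arrays of the same protein sequence at different concentrations or buffers were also averaged together. Data originate from 3228 arrays in the Consortium for Functional Glycomics database, kept only where the protein sequence was available.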

[2] = molecular target: 3-Anhydro-Gal(a1-3)Gal4S(b1-4)3-Anhydro-Gal(a1-3)Gal4S
Procedure, shortened: as §1

[3] = molecular target: 3-Anhydro-Gal(a1-3)Gal4S(b1-4)3-Anhydro-Gal(a1-3)Gal4S(b1-4)3-Anhydro-Gal(a1-3)Gal4S
Procedure, shortened: as §1

[4] = molecular target: 3-Anhydro-Gal(a1-3)Gal4S(b1-4)3-Anhydro-Gal(a1-3)Gal4S(b1-4)3-Anhydro-Gal(a1-3)Gal4S(b1-4)3-Anhydro-Gal(a1-3)Gal4S
Procedure, shortened: as §1

[5] = molecular target: 3-Anhydro-Gal(a1-3)Gal4S(b1-4)3-Anhydro-Gal2S(a1-3)Gal4S(b1-4)3-Anhydro-Gal(a1-3)Gal4S
Procedure, shortened: as §1

[6] = molecular target: 3dGal(b1-3)[Fuc(a1-4)]Glc
Procedure, shortened: as §1

[7] = molecular target: 3dGal(b1-4)Glc
Procedure, shortened: as §1

[8] = molecular target: Ara(a1-5)Ara(a1-5)Ara(a1-5)Ara(a1-5)Ara(a1-5)Ara
Procedure, shortened: as §1

[9] = molecular target: Ara(a1-5)Ara(a1-5)Ara(a1-5)Ara(a1-5)Ara(a1-5)Ara(a1-5)Ara
Procedure, shortened: as §1

[10] = molecular target: Fuc(a1-2)Gal
Procedure, shortened: as §1

[11] = molecular target: Fuc(a1-2)Gal(b1-3)GlcNAc(b1-3)Gal(b1-4)Glc
Procedure, shortened: as §1

[12] = molecular target: Fuc(a1-2)Gal(b1-3)GlcNAc(b1-3)[Fuc(a1-3)[Gal(b1-4)]GlcNAc(b1-6)]Gal(b1-4)Glc
Procedure, shortened: as §1

[13] = molecular target: Fuc(a1-2)Gal(b1-3)[Fuc(a1-4)]GlcNAc(b1-3)Gal(b1-4)Glc
Procedure, shortened: as §1

[14] = molecular target: Fuc(a1-2)Gal(b1-3)[Fuc(a1-4)]GlcNAc(b1-3)Gal(b1-4)[Fuc(a1-3)]GlcNAc(b1-3)Gal(b1-4)Glc
Procedure, shortened: as §1

[15] = molecular target: Fuc(a1-2)Gal(b1-3)[Fuc(a1-4)]GlcNAc(b1-3)[Fuc(a1-2)]Gal(b1-4)Glc
Procedure, shortened: as §1

[16] = molecular target: Fuc(a1-2)Gal(b1-3)[Fuc(a1-4)]GlcNAc(b1-3)[Fuc(a1-3)[Gal(b1-4)]GlcNAc(b1-6)]Gal(b1-4)Glc
Procedure, shortened: as §1

[17] = molecular target: Fuc(a1-2)Gal(b1-3)[Fuc(a1-4)]GlcNAc(b1-3)[Gal(b1-4)GlcNAc(b1-6)]Gal(b1-4)Glc
Procedure, shortened: as §1

[18] = molecular target: Fuc(a1-2)Gal(b1-4)[Fuc(a1-3)]GlcNAc(b1-3)Gal(b1-4)Glc
Procedure, shortened: as §1

[19] = molecular target: Fuc(a1-2)Gal(b1-4)[Fuc(a1-3)]GlcNAc(b1-3)[Fuc(a1-2)]Gal(b1-4)Glc
Procedure, shortened: as §1

[20] = molecular target: Fuc(a1-2)[Gal(a1-3)]Gal
Procedure, shortened: as §1

[21] = molecular target: Fuc(a1-2)[Gal(a1-3)]Gal(b1-4)GlcNAc(b1-3)Gal(b1-4)Glc
Procedure, shortened: as §1

[22] = molecular target: Fuc(a1-2)[GalNAc(a1-3)]Gal
Procedure, shortened: as §1

[23] = molecular target: Fuc(a1-2)[GalNAc(a1-3)]Gal(b1-3)GlcNAc(b1-3)Gal(b1-4)Glc
Procedure, shortened: as §1

[24] = molecular target: Fuc(a1-2)[GalNAc(a1-3)]Gal(b1-3)[Fuc(a1-4)]GlcNAc(b1-3)Gal(b1-4)Glc
Procedure, shortened: as §1

[25] = molecular target: Fuc(a1-2)[Neu5Ac(bond)]Gal(b1-3)GlcNAc(b1-3)Gal(b1-4)Glc
Procedure, shortened: as §1

[26] = molecular target: Fuc(a1-3)GlcNAc6S
Procedure, shortened: as §1

[27] = molecular target: Fuc(a1-3)[3dGal(b1-4)]Glc
Procedure, shortened: as §1

[28] = molecular target: Fuc(a1-3)[Gal(b1-4)]GlcNAc
Procedure, shortened: as §1

[29] = molecular target: Fuc(a1-3)[Gal(b1-4)]GlcNAc(b1-3)Gal(b1-4)Glc
Procedure, shortened: as §1

[30] = molecular target: Fuc(a1-3)[Gal(b1-4)]GlcNAc(b1-3)Gal(b1-4)[Fuc(a1-3)]Glc
Procedure, shortened: as §1

[31] = molecular target: Fuc(a1-3)[Gal(b1-4)]GlcNAc(b1-3)[Fuc(a1-2)]Gal(b1-4)Glc
Procedure, shortened: as §1

[32] = molecular target: Fuc(a1-3)[Gal(b1-4)]GlcNAc(b1-3)[Fuc(a1-3)[Gal(b1-4)]GlcNAc(b1-6)]Gal(b1-4)Glc
Procedure, shortened: as §1

[33] = molecular target: Fuc(a1-3)[Gal3S(b1-4)]Glc
Procedure, shortened: as §1

[34] = molecular target: Fuc(a1-3)[Gal3S(b1-4)]GlcNAc
Procedure, shortened: as §1

[35] = molecular target: Fuc(a1-3)[Gal3S(b1-4)]GlcNAc(b1-3)Gal(b1-4)Glc
Procedure, shortened: as §1

[36] = molecular target: Fuc(a1-3)[Gal3S(b1-4)]GlcNAc6S(b1-3)Gal(b1-4)Glc
Procedure, shortened: as §1

[37] = molecular target: Fuc(a1-3)[Gal6S(b1-4)]GlcNAc(b1-3)Gal(b1-4)Glc
Procedure, shortened: as §1

[38] = molecular target: Fuc(a1-6)GlcNAc
Procedure, shortened: as §1

[39] = molecular target: Gal(a1-3)Gal(b1-4)Gal(a1-3)Gal
Procedure, shortened: as §1

[40] = molecular target: Gal(a1-4)Gal(b1-4)GlcNAc
Procedure, shortened: as §1

[41] = molecular target: Gal(b1-3)GalNAc
Procedure, shortened: as §1

[42] = molecular target: Gal(b1-3)GalNAc(b1-4)Gal(b1-4)Glc
Procedure, shortened: as §1

[43] = molecular target: Gal(b1-3)GalNAc(b1-4)Gal3S(b1-4)Glc
Procedure, shortened: as §1

[44] = molecular target: Gal(b1-3)GalNAc(b1-4)[Neu5Ac(a2-3)]Gal(b1-4)Glc
Procedure, shortened: as §1

[45] = molecular target: Gal(b1-3)GalNAc(b1-4)[Neu5Gc(a2-3)]Gal(b1-4)Glc
Procedure, shortened: as §1

B1: Dectin-1 (Mus musculus), Q6QLQ4 (protein)
chain: GHNSGRNPEEKDNFLSRNKENHKPTESSLDEKVAPSKASQTTGGFSQPCLPNWIMHGKSCYLFSFSGNSWYGSKRHCSQLGAHLLKIDNSKEFEFIESQTSSHRINAFWIGLSRNQSEGPWFWEDGSAFFPNSFQVRNTAPQESLLHNCVWIHGSEVYNQICNTSSYSICEKEL
glycan array binding signal (z-score) [1]: 0.01 | glycan array binding signal (z-score) [2]: -0.08 | glycan array binding signal (z-score) [3]: -0.091 | glycan array binding signal (z-score) [4]: -0.091 | glycan array binding signal (z-score) [5]: -0.091 | glycan array binding signal (z-score) [6]: 0.092 | glycan array binding signal (z-score) [7]: -0.013 | glycan array binding signal (z-score) [8]: -0.047 | glycan array binding signal (z-score) [9]: -0.064 | glycan array binding signal (z-score) [10]: -0.02 | glycan array binding signal (z-score) [11]: -0.068 | glycan array binding signal (z-score) [12]: -0.087 | glycan array binding signal (z-score) [13]: -0.018 | glycan array binding signal (z-score) [14]: 0.085 | glycan array binding signal (z-score) [15]: -0.091 | glycan array binding signal (z-score) [16]: -0.081 | glycan array binding signal (z-score) [17]: -0.085 | glycan array binding signal (z-score) [18]: -0.091 | glycan array binding signal (z-score) [19]: -0.089 | glycan array binding signal (z-score) [20]: -0.091 | glycan array binding signal (z-score) [21]: -0.091 | glycan array binding signal (z-score) [22]: -0.033 | glycan array binding signal (z-score) [23]: -0.091 | glycan array binding signal (z-score) [24]: -0.034 | glycan array binding signal (z-score) [25]: -0.091 | glycan array binding signal (z-score) [26]: -0.021 | glycan array binding signal (z-score) [27]: -0.067 | glycan array binding signal (z-score) [28]: -0.091 | glycan array binding signal (z-score) [29]: -0.067 | glycan array binding signal (z-score) [30]: -0.03 | glycan array binding signal (z-score) [31]: -0.091 | glycan array binding signal (z-score) [32]: -0.091 | glycan array binding signal (z-score) [33]: -0.091 | glycan array binding signal (z-score) [34]: -0.091 | glycan array binding signal (z-score) [35]: -0.091 | glycan array binding signal (z-score) [36]: -0.091 | glycan array binding signal (z-score) [37]: -0.091 | glycan array binding signal (z-score) [38]: -0.091 | glycan array binding signal (z-score) [39]: -0.09 | glycan array binding signal (z-score) [40]: -0.091 | glycan array binding signal (z-score) [41]: -0.08 | glycan array binding signal (z-score) [42]: 0.018 | glycan array binding signal (z-score) [43]: -0.091 | glycan array binding signal (z-score) [44]: -0.091 | glycan array binding signal (z-score) [45]: -0.091
